# Source: PubChem BioAssay AID488969 (Vanderbilt High Throughput Screening Facility, 2010)
# Over roughly 110,000 compounds, “z-score” has its median near -0.1; the highest 2% begin near 2. This is one part of the list.
# Target: Metabotropic glutamate receptor 8 (Rattus norvegicus) (UniProt P70579)
# Assay: rat mGluR8 modulators via GIRK flux, primary screen, cell-based, thallium flux, HTS (AID 488969)
# Conditions: HEK293 rat mGluR8, GIRK (G protein-gated inwardly rectifying potassium channel) thallium flux, FluoZin2; at 10 µM; stronger effect = higher value; submaximal glutamate (EC20) added with thallium
# Sequence of UniProt P70579 (P70579 whole entry, looked up): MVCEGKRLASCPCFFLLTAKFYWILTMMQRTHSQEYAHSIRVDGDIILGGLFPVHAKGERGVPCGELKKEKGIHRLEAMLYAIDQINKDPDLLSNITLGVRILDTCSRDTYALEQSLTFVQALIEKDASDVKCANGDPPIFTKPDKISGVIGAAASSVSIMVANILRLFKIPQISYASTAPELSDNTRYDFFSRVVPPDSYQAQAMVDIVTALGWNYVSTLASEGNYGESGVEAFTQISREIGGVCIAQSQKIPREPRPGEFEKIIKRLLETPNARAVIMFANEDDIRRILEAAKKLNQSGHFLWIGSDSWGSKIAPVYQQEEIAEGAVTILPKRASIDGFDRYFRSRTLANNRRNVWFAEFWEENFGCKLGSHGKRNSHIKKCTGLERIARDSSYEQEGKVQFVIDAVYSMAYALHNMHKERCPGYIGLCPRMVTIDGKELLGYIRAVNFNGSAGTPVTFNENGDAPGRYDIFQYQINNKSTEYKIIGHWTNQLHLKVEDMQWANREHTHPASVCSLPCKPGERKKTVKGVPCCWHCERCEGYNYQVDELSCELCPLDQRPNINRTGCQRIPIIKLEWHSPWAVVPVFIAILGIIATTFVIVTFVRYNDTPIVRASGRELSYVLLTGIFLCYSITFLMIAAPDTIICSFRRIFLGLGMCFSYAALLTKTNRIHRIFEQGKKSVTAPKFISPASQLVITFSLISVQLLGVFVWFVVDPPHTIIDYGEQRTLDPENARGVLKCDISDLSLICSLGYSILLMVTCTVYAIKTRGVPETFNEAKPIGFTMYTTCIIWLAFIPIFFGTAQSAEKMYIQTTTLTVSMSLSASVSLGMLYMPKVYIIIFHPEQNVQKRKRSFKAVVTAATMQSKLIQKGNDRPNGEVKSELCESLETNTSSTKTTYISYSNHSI
row,SMILES,z-score
1,COc1ccc(C2=NOC(C(=O)Nc3cc(C)on3)C2)cc1 (centres undefined),-0.0706
2,COc1ccc(/C=C2\NC(=S)N(CC3CCCO3)C2=O)c(OC)c1 (centres undefined),0.39
3,O=C(NCC1CCCCC1)c1ccco1,-0.427
4,C=CCn1c(SCC(=O)Nc2ccccc2OC)nnc1-c1ccco1,-0.908
5,COc1ccc(-n2nnnc2SCC(=O)Nc2nc3c(s2)CCCC3)cc1,-0.483
6,COC(=O)c1c(NC(=O)CSc2nnnn2-c2ccccc2)sc2c1CCC(C(C)(C)C)C2 (centres undefined),-0.586
7,O=C(Cc1cccc2ccccc12)Nc1nc(-c2cccc([N+](=O)[O-])c2)cs1,-0.19
8,Cc1ccc2[nH]c(=O)c3cc(C(=O)N(CCCOC(C)C)Cc4ccco4)sc3c2c1,-0.0585
9,COc1ccc(N2CCN(C(=O)CCCn3c(=O)[nH]c4cc(Cl)ccc4c3=O)CC2)cc1,-0.308
10,Cc1ccc(C)c2[nH]c(=O)c(CCNC(=O)C(C)(C)C)cc12,0.538
11,CCn1c(NCc2cc(Br)ccc2NS(=O)(=O)c2ccc(C)cc2)nc2ccccc21,-0.0838
12,Nc1nc(-c2ccco2)nn1C(=O)CCc1ccccc1,-0.219
13,CCCCn1c(CNC(=O)CCC)nc2ccccc21,-0.174
14,CCOc1cc(S(=O)(=O)N2CCN(Cc3ccccc3)CC2)ccc1Br,0.445
15,CCOc1ccccc1NC(=O)CN(Cc1ccccc1)S(C)(=O)=O,0.176
16,Cc1cc2c(c(=O)n1Cc1ccco1)C(c1ccccc1)C(C#N)=C(N)O2 (centres undefined),0.255
17,COc1ccccc1N1CCN(C(=O)c2cccc(N3C(=O)NC4CC3(C)Oc3ccccc34)c2)CC1 (centres undefined),-0.212
18,Cc1cccc(NC(=O)CN2NS(=O)(=O)c3ccccc3C2=O)c1,0.0291
19,Cc1ccc(F)cc1NC(=O)c1cccc(N(C)C)c1,-0.421
20,COc1ccc(NC(=O)c2c(F)c(F)c(F)c(F)c2F)cc1Cl,-0.25
21,Cc1nc(-c2cccc(NC(=O)c3cc4cc(Br)ccc4oc3=O)c2)cs1,-0.0458
22,CCOc1ccc(CCNC(=O)C2CCCN(C(=O)N(C)C)C2)cc1OCC (centres undefined),-0.88
23,CCOC(=O)C(=CNc1cccc(C)c1C)C(=O)OCC,-0.999

row,SMILES,z-score
1,C/C(=N\NC(=O)COc1ccc(C(C)(C)C)cc1)c1ccc2c(c1)OCCO2,-0.171
2,Cc1cc2nc(CCN(Cc3cccnc3)C(=S)Nc3ccccc3)[nH]c2cc1C,0.259
3,Cc1c(NC(=O)C2C3C=CC(C3)C2C(=O)O)c(=O)n(-c2ccccc2)n1C (centres undefined),0.15
4,O=C(CCSc1ccccn1)Nc1ccc(Br)cc1,1.4
5,Cc1ncc([N+](=O)[O-])n1CCOC(=O)NC(NCc1ccccc1Cl)C(Cl)(Cl)Cl (centres undefined),-0.331
6,CCOc1ccc2nc(NC(=S)N(C)C)sc2c1,-0.436
7,COc1ccc(NC2=C(Cl)C(=O)N(CCc3ccccc3)C2=O)cc1,1.27
8,COc1ccccc1N1CCN(C(=O)c2cc(-c3cccc(Cl)c3)on2)CC1,0.0644
9,COC(=O)c1sc2nc(N)c(C#N)cc2c1N,-0.176
10,CCCCCn1c(CN2CCN(C(=O)OCC)CC2)nc2c1c(=O)n(C)c(=O)n2C,0.133
11,CCN(CC)C(=O)CSc1nnc(-c2ccco2)n1N,-0.108
12,Cc1ccc(CSCC(=O)N2CCOCC2)cc1,-0.102
13,COC(=O)C1C(=O)C2=C(CC1C)NC(C)=C(C(=O)OC1CCCCC1)C2c1ccc(N(C)C)cc1 (centres undefined),0.0832
14,Cc1ccc(C)c(NC(=O)CCC(=O)NNC(=O)C(c2ccccc2)c2ccccc2)c1,-0.193
15,CC(C)(C)n1nnnc1C(c1cccnc1)N(Cc1ccccc1)Cc1cccs1 (centres undefined),0.191
16,CCCNC(=O)CCc1cc(C(C)(C)C)c(O)c(C(C)(C)C)c1,-0.319
17,CCn1c(O)c(/C=C2\C=NN=C2c2ccc(C)cc2)sc1=S,0.0782
18,CN(CCO)C(=O)CCC(=O)Nc1ccc(S(N)(=O)=O)cc1,0.00817
19,CCOc1ccc(S(=O)(=O)Nc2cccc(Cl)c2)cc1,0.395
20,O=C(Nc1cccc(C(F)(F)F)c1)c1cccnc1NCCc1ccccc1,-0.14
21,CN(C)c1nc(NCc2ccccc2)nc(N/N=C/c2ccc(Cl)cc2Cl)n1,0.245
22,Cc1cc(Nc2ccc3c(c2)OCCO3)c2ccccc2n1,0.143
23,O=C(O)CN1C(=O)c2ccc(Oc3cccc4c3C(=O)N(CC(=O)O)C4=O)cc2C1=O,0.0985

row,SMILES,z-score
1,CC(C)C(=O)NC(C)C(c1cccs1)N1CCN(C)CC1 (centres undefined),0.199
2,N#CCCN(C(=O)CSc1ccc2c(c1)OCCO2)c1ccc(F)cc1,-0.0814
3,COCCN(C(=S)Nc1ccccc1OC)C(C)c1cccs1 (centres undefined),-0.973
4,CCCc1nc2ccccc2c2nc(N)nn12,0.102
5,CCC(C)Sc1nc2ccccc2n1CC(=O)O (centres undefined),-0.147
6,CCC(=O)Nc1nc2nc(C)cc(=O)n2[nH]1,-0.0896
7,O=C(NCc1ccccc1)C(Cc1ccccc1)N1C(=O)C2C3CCC(C3)C2C1=O (centres undefined),-0.034
8,Cc1ccc(NC(=O)NNC(=O)C2CC(c3cccnc3)=NO2)cc1 (centres undefined),-0.193
9,CCCCN(C)CCNC(=O)Cn1c(=O)sc2ccccc21,0.251
10,Cc1ccc(NC(=O)Cn2c(=O)n(CCCCC(=O)NCc3ccco3)c(=O)c3ccccc32)cc1,-0.29
11,Cc1nn(CC(O)COc2ccc3c(c2)CCC3)c(C)c1Br (centres undefined),0.344
12,CCOC(=O)C1=C(C)N=C2SCCC(=O)N2[C@@H]1/C=C/c1ccccc1,-0.121
13,O=C(Nc1cccc([N+](=O)[O-])c1)c1ccncc1,-0.347
14,Cn1c(=O)c2c(nc(CN3CCc4ccccc4C3)n2Cc2ccc(F)cc2)n(C)c1=O,-0.331
15,COc1ccc(NC(=O)CSc2nnc(Cn3cnc([N+](=O)[O-])n3)n2C)cc1,0.000496
16,O=C(N/C=N/OCc1ccc(Cl)cc1Cl)NOCc1c(Cl)cccc1Cl,1.49
17,CCCc1[nH]nc2c1C(c1ccc(OC)c(CSC3=NCCS3)c1)C(C#N)=C(N)O2 (centres undefined),-1.21
18,COCC(C)n1c(SCc2nc(N)nc(Nc3ccccc3C)n2)nc2ccccc2c1=O (centres undefined),-1.5
19,CC(C)=C1C2CCC1C(C(=O)NCc1ccccc1)C2C(=O)O (centres undefined),-1.01
20,CCOC(=O)c1ccc(NC(=O)CN(Cc2ccc(Cl)cc2)S(C)(=O)=O)cc1,1.64
21,CCN(CC(=O)NCc1cccs1)C(=O)c1cc(S(=O)(=O)N2CCOCC2)ccc1C,0.964
22,O=S(=O)(Nc1nccs1)c1cnc(Cl)c(Br)c1,0.908
23,O=C(N/N=C/c1ccc(N2CCOCC2)c([N+](=O)[O-])c1)c1ccc(F)cc1,-0.226
